Our source for the displacement values is PubChem BioAssay AID1240 (Sanford-Burnham Center for Chemical Genomics, 2008).

The campaign covered roughly 50,000 compounds. About 800 (1.6%) showed an effect of 50% or more. Some of the results follow.

The target of the test is Bcl-2-like protein 10 (Homo sapiens) (UniProt Q9HD36). Briefly: TR3 peptide-Bcl-B binding displacers, biochemical primary FP assay, phenotype converters (AID 1240).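 Also: 0% = Bcl-B with tracer peptide and DMSO and 100% = tracer peptide lacking Bcl-B.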 As to conditions: GST-Bcl-B / FITC-TR3 peptide fluorescence polarization; stronger effect = higher value; compound at 3.75 mg/L. (In general: Fluorescence polarisation rises when a labelled molecule tumbles more slowly, as on binding a larger partner.)
Sequence of UniProt Q9HD36 (Q9HD36 whole entry, looked up): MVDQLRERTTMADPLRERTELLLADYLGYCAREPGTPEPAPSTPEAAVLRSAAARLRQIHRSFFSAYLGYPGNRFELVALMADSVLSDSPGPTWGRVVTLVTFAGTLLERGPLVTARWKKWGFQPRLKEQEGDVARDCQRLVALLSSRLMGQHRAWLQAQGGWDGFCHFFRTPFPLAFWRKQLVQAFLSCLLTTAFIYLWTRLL
Consider `O=C(Nc1ccc2nn(-c3cccc([N+](=O)[O-])c3)nc2c1)c1ccccc1Br`, for which the displacement amounted to 3.7%.
As to `O=C(Nc1ccccc1Cl)c1ccc2nccnc2c1`, the displacement is 13.6%.
Turning to `O=C1c2ccccc2C(=O)N1CCCCN(C(=O)c1ccc(Cl)s1)c1ccc(F)cc1F`, the displacement came to 10.1%.
To `CCCSc1nnc2c(n1)[nH]c1c(C)cccc12` belongs 5.4%; to `COc1ccc(N2C(=O)CS(=O)(=O)C2c2ccc(Cl)cc2)cc1` (centres undefined), 2.3%.
Turning to `O=C(O)CSc1nc2ccc([N+](=O)[O-])cc2s1`, the displacement came out at 1.2%.
Take `COc1ccc(/C=C2\C(=O)NC(=S)N(c3ccc(Br)cc3)C2=O)cc1`: the displacement was determined as 10.1%.
For the molecule `COc1ccc(C(=O)Nc2ccc(S(=O)(=O)N3CCc4ccccc43)cc2)cc1`, the displacement worked out at 7.1%.
On to `CCOC(=O)c1c[nH]c2cc(C(=O)OC)ccc2c1=O`, for which the displacement was -19.8%.
As to `CC(C)(C)CC(C)(C)N=C1NS(=O)(=O)c2cc([N+](=O)[O-])ccc21`, the displacement was 18.1%.
As for `O=C1c2ccc(Oc3cccc([N+](=O)[O-])c3)cc2C(=O)N1c1ccncc1`, the figure is -0.9%.
To `COc1ccc(C2Nc3ccccc3C(=O)N2c2ccc(C)cc2)cc1Cn1cc([N+](=O)[O-])cn1` (centres undefined) belongs 14.9%.
To `Cc1cc(Br)cc(C)c1NC(=O)c1c(F)cccc1F` belongs 12.4%.
`CCOc1ccc(C(=O)Nc2cccc(C(F)(F)F)c2)cc1Cl`: the displacement is -12%.
As for `CC(=O)n1nc(C)c2c1C[C@@H]1[C@H]2C1(C)C`, the displacement is 8.6%.
To `CCOC(=O)CSCCOc1ccc(/C=C2/C(=O)NC(=O)N(c3cccc(C)c3)C2=O)cc1OC` belongs -11.6%.
As for `CCC(Sc1nc(C)cc(C)n1)C(=O)N1c2ccccc2Sc2ccccc21` (centres undefined), the figure is 3.9%.
To `CSc1ccc(C=Nc2ccccc2C(N)=O)cc1` belongs -9.7%; to `Cc1ccccc1OCC(=O)O/N=C(\N)c1ccc(Cl)cc1`, -8%.
Consider `CC(=O)Nc1ccc(NS(=O)(=O)c2cc(C)ccc2C)cc1`, for which the displacement came to 4.7%.
In the case of `O=C1C=C(NCc2ccc3c(c2)OCO3)CC(c2ccccc2)C1` (centres undefined), the displacement was -4.6%.
Take `CNC(=O)CCC(=O)Nc1cc(Cl)ccc1C`: the displacement was -10.4%.
For the molecule `O=C1CC(O)(C(F)(F)C(F)F)Oc2ccc(Cl)cc21` (centres undefined), the displacement is 12.8%.
As to `CCC1(C)Cc2ccccc2-c2nc3n(c(=O)c21)CC(C(=O)O)S3` (centres undefined), the displacement is -4.7%.
As for `COc1cc(C2/C(=C(\O)c3ccccc3)C(=O)C(=O)N2CCCCCC(=O)O)ccc1O` (centres undefined), the figure is 14.9%; as for `CC1=NN(c2ccc(S(N)(=O)=O)cc2)C(=O)/C1=C/c1ccc(-c2ccc(Cl)cc2Cl)o1`, -6.3%; as for `CS(=O)(=O)N(Cc1ccco1)CC(O)Cn1c2ccccc2c2ccccc21` (centres undefined), 10.9%.
In the case of `Cc1ccc(-c2cc(C(=O)N/N=C/c3c(C)nn(-c4ccccc4)c3C)[nH]n2)cc1`, the displacement is -3.8%.
Regarding `Cc1ccc(OCCSc2nc3ccccc3n2CCO)c(C(C)C)c1`, the displacement is -4.7%.
In the case of `CCOc1ccc(NC(=S)NC(NC(=O)C(c2ccccc2)c2ccccc2)C(Cl)(Cl)Cl)cc1` (centres undefined), the displacement was found to be 13.1%.
For the molecule `COc1ccc(NC(=O)C2=C(C)NC(=S)NC2c2c(OC)ccc3ccccc23)cc1` (centres undefined), the displacement was -4.5%.
`CC1=NN(c2cccc(F)c2)C(=O)/C1=C/c1cccs1`: the displacement is -14.5%.
As for `O=C(CN1C(=O)/C(=C/c2ccccc2)SC1=S)Nc1cccc(Br)c1`, the figure is 11.9%; as for `O=C(COc1ccccc1Cl)Nc1cc(C(F)(F)F)ccc1Cl`, 19.1%.
As for `CCN(CC)c1ccc(/C=N/Nc2nn[nH]n2)c(O)c1`, the figure is -9%; as for `Nc1ccccc1SC1=C([N+](=O)[O-])CS(=O)(=O)C1`, 13.5%; as for `CSc1ccc(S(=O)(=O)N(CC(=O)N2CCN(c3ccccc3)CC2)c2ccc(C)cc2)cc1`, -0.2%.
To `COc1ccc(C(=O)Nc2cc(C(F)(F)F)cc(C(F)(F)F)c2)cc1` belongs 17.3%.
Consider `O=C(CSC(=S)N1CCCCC1)c1ccc([N+](=O)[O-])cc1`, for which the displacement is -8%.
To `CCc1cccc(CC)c1NC(=O)c1cccnc1` belongs -4.5%.
As to `CC(C)OC(=O)c1c(N)sc2c1CCCCC2`, the displacement is -4.7%.
As for `CC1(O)N(CC(=O)c2cccs2)C(=O)OC12CCCCC2` (centres undefined), the figure is -11%; as for `CCOc1ccc(NC(=O)c2c(Cl)cccc2Cl)cc1`, 7.9%.
Turning to `O=C(CCc1ccccc1)N1N=C(c2ccc(Cl)cc2)CC1(O)C(F)(F)F` (centres undefined), the displacement was -24.1%.
To `COc1cccc(C(=O)Nc2ccc(Cl)c(C(F)(F)F)c2)c1` belongs 7.6%; to `COc1ccc(OC)c(NC(=O)C(C)Oc2ccccc2)c1` (centres undefined), 8.6%.
To `O=C1NC(=S)N(c2ccc(F)cc2)C(=O)/C1=C/c1ccc(F)cc1` belongs 1.4%.
As for `CCC(C(=O)N1CCCC1)c1ccccc1` (centres undefined), the figure is 10%; as for `COc1cc(/C=N\NC(=O)CNc2ccccc2C)ccc1OC(C)=O`, 7.9%; as for `CCOc1ccc(-c2nnc(NC(=O)Nc3ccccc3)s2)cc1`, 14.2%.
For `CC1CN(S(=O)(=O)c2ccc3c(c2)C(=NO)c2cc(S(=O)(=O)N4CC(C)OC(C)C4)ccc2-3)CC(C)O1` (centres undefined), the displacement was -12.8%.
On to `Cc1ccc(NC(=O)COc2ccc(Cl)cc2Cl)nc1`, for which the displacement was -9.2%.
Turning to `CC1=C(C(=O)OCCc2ccccc2)C(c2cc([N+](=O)[O-])ccc2Cl)CC(=O)N1` (centres undefined), the displacement was -5.4%.
As for `O=C(CNC(=O)c1ccco1)c1ccc(F)cc1`, the figure is -5%; as for `Cc1ccc(C(=O)Cn2c(NCCCO)nc3ccccc32)cc1`, 9.9%.
As for `CC1CCCCN1S(=O)(=O)c1ccc(Br)c2ccccc12` (centres undefined), the figure is -3.3%; as for `O=c1[nH]c(=O)n(-c2ccccc2Cl)c(O)c1C=NCc1ccccc1F`, 6.3%.
On to `Cc1ccc(C(=O)N/C(=C\c2ccc(Cl)cc2)C(=O)NCCCN2CCOCC2)cc1`, for which the displacement is 7.3%.
As for `O=[N+]([O-])c1ccc(C=Nc2cccc(Cl)c2)cc1`, the figure is -5.1%; as for `O=[N+]([O-])c1cccc(-c2noc(-c3ccc(-c4ccccc4)cc3)n2)c1`, 4.5%.
Regarding `COc1cccc(/C=C2\SC(N3CCCCC3)=NC2=O)c1OC`, the displacement was -1.8%.
As for `CSc1nc(-c2ccccc2)c(C#N)c(=O)n1C`, the figure is -3.9%.
As for `C=CCOc1cccc(/C=N/NC(=O)CC(=O)NC2CCCCC2)c1`, the figure is -2.6%.
Take `O=C(NC1CCN(Cc2ccccc2)CC1)c1ccc(Cl)cc1Cl`: the displacement is -2.5%.
As for `CCOc1cc(/C=C2\SC(=S)NC2=O)ccc1OCc1c(C)no[n+]1[O-]`, the figure is 117%.
As for `O=C(COc1ccccc1[N+](=O)[O-])N/N=C/c1cc2c(cc1Br)OCO2`, the displacement amounted to 3.9%.
To `OCCc1ccc(-c2ccc(Cl)cc2)o1` belongs 10.5%; to `CC1=NN(c2ccc(C)cc2)C(=O)/C1=C/c1ccc(-c2cccc(C(=O)O)c2)o1`, 32.8%; to `COc1cc(NC(=O)c2ccccc2OC)ccc1NC(=O)c1ccco1`, -2.7%.
`Cc1ccc(-c2csc(Nc3ccc(O)cc3)n2)c(C)c1`: the displacement is -3.3%.
As to `CCOc1ccc(NC(=O)/C=C/c2ccc(OC)c(Br)c2)cc1`, the displacement worked out at 13.6%.
As for `CCn1c2ccccc2c2cc(CNC3CCCCC3)ccc21`, the figure is -0.9%; as for `CC1=NN(c2ccccc2)C(=O)/C1=C\c1ccc(-c2ccc(C)cc2[N+](=O)[O-])o1`, -1.9%; as for `CC(=O)c1ccc(NC(=O)c2ccc(Cl)c([N+](=O)[O-])c2)cc1`, -11.3%.
To `Cc1ccccc1-c1nc2cc(NC(=O)c3cccc4ccccc34)ccc2o1` belongs -7.3%.
To `O=C1CC(c2ccccc2)CC2=C1C(c1ccc(Cl)c(Cl)c1)Nc1ccccc1N2` (centres undefined) belongs -7.8%; to `CCOc1cc(C(=O)Nc2cccc3c2C(=O)c2ccccc2C3=O)cc(OCC)c1OCC`, -7.5%; to `NC(=O)c1nn2c(c1Br)NC(c1ccccc1)CC2C(F)(F)F` (centres undefined), 1.6%.
As to `COc1ccc(-n2sc3c(c2=S)-c2cc(C)ccc2N(C)C3(C)C)cc1OC`, the displacement was -2%.
To `CCN(CC)CCOc1ccc(Cl)c(C)c1` belongs -1.1%; to `COc1ccc(-c2noc(COc3cc(C)c(Cl)c(C)c3)n2)cc1`, -1.3%; to `CC1=C(C(=O)OC(C)C)C(c2ccc(F)cc2)NC(=O)N1` (centres undefined), 6.9%.
`Cc1ccc2nc(Nc3ccccc3)c(/C=N/O)c(=O)n2c1`: the displacement came to 2.6%.
For the molecule `COc1cc(C(=O)NCCOc2ccccc2Cl)cc(OC)c1OC`, the displacement was 9.6%.
With `COC(=O)c1ccc(OCC(O)CN(C)C)cc1` (centres undefined), the displacement is 15.9%.
Take `CC(C)(C)c1ccc(S(=O)(=O)N2CCN(c3ccccc3)CC2)cc1`: the displacement was -5.3%.
Turning to `O=C1C2C(c3ccccc3Cl)OC3(C(=O)c4ccccc4C3=O)C2C(=O)N1c1ccccc1C(F)(F)F` (centres undefined), the displacement stood at 6.2%.
Consider `O=C(N/C(=C/c1cccs1)C(=O)N1CCCCC1)c1ccccc1`, for which the displacement was 8.5%.
As for `COc1cc(C2NC(=S)NC(C)=C2C(=O)Nc2cccc(C)c2)cc(OC)c1OC` (centres undefined), the displacement stood at 8.6%.
Turning to `O=C(CN(c1ccc(F)cc1)S(=O)(=O)c1ccccc1)NCc1ccco1`, the displacement came out at 0.8%.
Turning to `Cn1c(-c2ccco2)nc2c3ccccc3c3ccccc3c21`, the displacement came to 14.9%.
As for `O=C(Nc1ccc(Cl)cn1)C12CC3CC(CC(C3)C1)C2`, the figure is 7.3%; as for `NS(=O)(=O)c1ccc(NC(=O)C2CC2(c2ccccc2)c2ccccc2)cc1` (centres undefined), -2.1%; as for `Cc1ccc(-c2noc(COc3ccc4ccccc4c3)n2)cc1`, 11%.
As to `COc1ccccc1OCCOc1ccc(C=O)cc1`, the displacement is 9.4%.
As for `Cc1cc([N+](=O)[O-])c(-c2ccc(/C=C3/Sc4ccccc4C3=O)o2)cc1Cl`, the figure is 9.8%.
As for `O=[N+]([O-])c1cccc(NS(=O)(=O)c2cc(Cl)ccc2Cl)c1`, the figure is -6.8%; as for `C/C(=N/NC(=O)c1ccccc1[N+](=O)[O-])c1ccc(N2C(=O)C3CCCCC3C2=O)cc1` (centres undefined), -3.7%.
Regarding `O=C(N/N=C/c1ccc(F)cc1)c1cc(-c2ccc3ccccc3c2)n[nH]1`, the displacement is -4.5%.
Consider `C=CCn1c2ccccc2c2nnc(SCC(=O)O)nc21`, for which the displacement was -17.1%.
Consider `O=C1N=C(N2CCCCCC2)S/C1=C\c1ccccc1`, for which the displacement was -19%.
With `CC(C)CN1C(=O)/C(=C/C2CC=CCC2)SC1=S` (centres undefined), the displacement is 6.8%.
Take `COc1ccc(CC(=O)NC2C3CC4CC(C3)CC2C4)cc1OC` (centres undefined): the displacement was found to be 8.6%.
With `COc1ccc(-c2cc(C(F)(F)F)n3nc(C(=O)N4CCOCC4)cc3n2)cc1`, the displacement is -0.7%.
Consider `CCOC(=O)c1ccccc1NC(=O)c1ccncc1`, for which the displacement is -2.6%.
As to `COc1ccc(CNC(=O)CN(c2ccc(C)cc2)S(=O)(=O)c2ccc(SC)cc2)cc1`, the displacement was -3.6%.
On to `CC(=O)c1cnc2c(-c3ccccc3)c(C)nn2c1C`, for which the displacement was -2.3%.
As to `CCOC(=O)COc1cc(C)ccc1C(C)(C)C`, the displacement was -6.2%.
`O=C(/C=C/c1ccc(-c2ccccc2Cl)o1)c1ccc(F)cc1`: the displacement was 6.5%.
